{"source": "patent US4868195A", "about": "“Novel enolamides, pharmaceutical compositions and methods of use thereof for activity as modulators of the arachidonic acid cascade” (Warner-Lambert Company, priority 1988, dated 1989)", "key": {"[1]": {"molecular_target": "T1, leukotriene receptor (guinea pig lung membranes) (Cavia porcellus, UniProt Q2NNR5)", "T1 construct": "20 mg original tissue wet weight of guinea pig lung; tissue Kuiper Rabbit Farm, Gary, IN (animals); host or cells: guinea pig lung, crude membranes", "T1 sequence (Q2NNR5 1-340)": "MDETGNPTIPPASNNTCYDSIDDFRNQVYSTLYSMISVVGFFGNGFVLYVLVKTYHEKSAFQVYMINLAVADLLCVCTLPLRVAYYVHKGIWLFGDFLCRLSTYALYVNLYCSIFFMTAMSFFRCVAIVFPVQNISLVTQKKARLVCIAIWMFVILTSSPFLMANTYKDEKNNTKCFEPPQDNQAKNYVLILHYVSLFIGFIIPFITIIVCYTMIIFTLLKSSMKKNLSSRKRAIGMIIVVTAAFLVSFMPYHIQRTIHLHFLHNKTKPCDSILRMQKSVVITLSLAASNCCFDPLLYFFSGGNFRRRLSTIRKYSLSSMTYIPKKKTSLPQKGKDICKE", "test": "Binding of ^3 H-Leukotriene D4 to Guinea Pig Lung Membranes (RBL)", "description": "Additionally, the activity, of the compounds having the Formula I of the present invention is determined by the well known leukotriene receptor binding assay that is described by R. F. Bruns, W. J. Thomsen and T. A. Pugsley in Life Sciences, 33, 645 (1983) or the Herxheimer in vivo antiallergy test described in H. Herxheimer, J. Physiol. (London), Vol. 177, p. 251 (1952).\nBinding of ^3 H-Leukotriene D4 to Guinea Pig Lung Membranes (RBL)\n[14,15-^3 H]leukotriene D4 (^3 H-LTD4) (25 Ci/mmol and 40 Ci/mmol) is purchased from New England Nuclear. Unlabeled LTC4 is a gift of Ono Pharmaceuticals (Japan). LTC4, LTD4, and LTE4 are purchased as methyl esters from Paesel GmbH (Frankfurt, W. Germany). Concentrations of the Paesel leukotrienes are calculated from their absorbance at 280 nm. Leukotriene esters are saponified overnight under N2 in 3.3% potassium carbonate at room temperature. Tritiated leukotrienes are stored as received from New England Nuclear at -20° C. Ono LTC4 (5 μg/ml) is stored at -60° C. in phosphate buffer pH 6.8. Saponified Paesel leukotrienes are stored at -60° C. in 3.3% potassium carbonate (pH 9.0-9.5). Aliquots of leukotrienes are taken from stock solutions immediately after thawing, after which the stock solutions are immediately refrozen. 2-Amino-2-(hydroxymethyl)-1,3-propanediol (Tris) is Sigma pH 7.7 pre-set crystals, and dimethylsulfoxide is Aldrich Gold Label.\nPreparation of crude lung membranes\nTwo pairs of lungs (1.3 g) from freshly sacrificed 300 g male guinea pigs (older animals gave substantially lower binding) from Kuiper Rabbit Farm, Gary, IN are disrupted with a Polytron PT 10 (setting 4) for 30 seconds in 20 ml ice-cold 50 mM Tris adjusted with HCl to pH 7.7 at 25° C. (Tris buffer), filtered through a single layer of gauze to remove connective tissue, and centrifuged at 50,000 xg for ten min. The pellet is resuspended by homogenization with a Polytron in 20 ml Tris buffer, centrifuged at 50,000 xg for ten min., resuspended, incubated at 37° C. for 30 minutes, and centrifuged again. The final pellet is resuspended in Tris buffer and either used fresh or stored at -70° C.\nAll incubations are in triplicate for 60 minutes at 25° C. in 12×75 mm polystyrene tubes containing 1 ml Tris buffer with 20 mg original tissue wet weight of guinea pig lung nmembranes, 0.2 nM ^3 H-LTD4 (6,000-11,000 cpm), 10 mM MgCl2, and 1% dimethylsulfoxide Leukotrienes are diluted in Tris buffer. All other test compounds dissolved at 10 mM in dimethylsulfoxide on the same day as the experiment, and diluted in dimethylsulfoxide to 100× the final incubation concentration. Control incubations receive an equal volume (10 μl) of dimethylsulfoxide; the resulting concentration of dimethylsulfoxide had no effect on binding. ^3 H-LTD4 is diluted to 2 nM in Tris buffer. The membrane suspension (20 mg/0.89 ml) contains sufficient MgCl2 to give 10 mM final concentration in the incubation. […] All additions are performed at 0° C. Immediately after the last addition, the incubation is initiated by agitating the rack of tubes on a vortex mixer and warming to 25° C. in a water bath. Tubes are vortexed at least once more during the incubation to ensure that the membranes remained suspended. Incubations are terminated after 60 minutes by filtering under reduced pressure through 25 mm Whatman GF/B filters followed by rapid washing three times with 4 ml of ice-cold Tris buffer. Filters are added to scintillation vials with 8 ml Formula 947 (New England Nuclear), left overnight, shaken, and the radioactivity counted in a scintillation counter (efficiency 40%). Nonspecific binding, defined as binding of ^3 H-LTD4 in the presence of 100 nM LTC4, is 300-500 cpm for all lots of ^3 H-LTD4. Binding to the filters in the absence of tissue is about 100 cpm, and is not affected by unlabeled LTC4. Specific binding, defined as total binding minus nonspecific binding, varied considerably from lot to lot of ^3 H-LTD4. […]"}, "[2]": {"molecular_target": "Human Leukocyte Lipoxygenase", "test": "Human Leukocyte Lipoxygenase Assay (LDA-H)", "format": "biochemical", "settings": "acetone-pentane powder enzyme, 234 nm, 24° C., 5 min preincubation; read-out: Concentration (M) for 50.0 % Inhibition, IC (LDAH)", "description": "Human Leukocyte Lipoxygenase Assay (LDA-H)\nWhole blood is collected from normal volunteers and spun in a refrigerated centrifuge for four minutes at 1°-6° C. at 3800 g. The buffy coat is manually separated and washed twice with chilled 0.83% NH4 Cl and centrifuged at 1000 RPM for ten minutes at 4° C. The white cell is suspended in culture media-EMEM supplemented with 6% Agamma human serum, tricine buffer, and neomycin and recentrifuged at 1000 g to yield a pellet containing the leukocytes used for the preparation of the acetone pentane powder.\nThe acetone-pentane powder is prepared utilizing a modification of the procedure reported for human platelet lipoxygenase. See Siegel, et al, Arachidonate Metabolism via Lipoxygenase and 12-L-hydroperoxy-5 Eicosatetraenoic Acid Peroxidase Sensitive to Antiinflammatory Drugs, Proc. Natl. Acad. Sci., USA 77: 308, 1980 and D. P. Wallach and V. R. Brown, A Novel Preparation of Human Platlet Lipoxygenase, Biochem. Biophys. Acta. 663: 361, 1981. Buffy coat prepared above is resuspended in 5-7 volumes of cold 0.1M Tris buffer, pH 7.4 containing 0.154M NaCl. The suspension is centrifuged at 13,300 g for ten minutes at 4° C. […]\nThe enzyme reaction is followed spectrophotometrically by the appearance of a conjugated diene product at 234 nm. The reaction is monitored at 24° C. using a Gilford Model 2600 spectrophotometer. […]"}}, "note": "Where “and” joins values, the source holds several entries; their conditions need not be identical. Identical values can stand only once. For part of these data: At least one read-out could not be matched to a standard name with certainty. For part of these data: At least one structure is not confirmed: it was looked up by name or label, or the drawing left a doubt.", "data": [{"molecule": "O=C(Nc1ccc(CCc2cc(O)c(O)c(O)c2)cc1)C1=C(O)c2ccccc2S(=O)(=O)C1", "note": "[Example 36]", "values": [{"measurement": "% Inhibition (RBL)", "setting": "[1]; Concentration 1.00 E -4 M", "value": "78.0% and 81.0%"}, {"measurement": "% Inhibition (RBL)", "setting": "[1]; Concentration 1.00 E -5 M", "value": 7.0, "unit": "%"}, {"measurement": "% Inhibition (RBL)", "setting": "[1]; Concentration 2.00 E -5 M", "value": 27.0, "unit": "%"}, {"measurement": "% Inhibition (RBL)", "setting": "[1]; Concentration 2.00 E -6 M", "value": 6.0, "unit": "%"}, {"measurement": "% Inhibition (RBL)", "setting": "[1]; Concentration 3.15 E -5 M", "value": 80.0, "unit": "%"}, {"measurement": "% Inhibition (RBL)", "setting": "[1]; Concentration 5.00 E -5 M", "value": 59.0, "unit": "%"}, {"measurement": "% Inhibition (RBL)", "setting": "[1]; Concentration 5.00 E -6 M", "value": 3.0, "unit": "%"}]}, {"molecule": "CN(C)c1ccc(CCc2ccc(NC(=O)C3CS(=O)(=O)c4ccccc4C3=O)cc2)cc1", "note": "(stereo not drawn) [Example 55]", "values": [{"measurement": "% Inhibition (RBL)", "setting": "[1]; Concentration 1.00 E -5 M", "value": 6.0, "unit": "%"}, {"measurement": "% Inhibition (RBL)", "setting": "[1]; Concentration 1.00 E -6 M", "value": 5.0, "unit": "%"}, {"measurement": "% Inhibition (RBL)", "setting": "[1]; Concentration 2.00 E -5 M", "value": 12.0, "unit": "%"}, {"measurement": "% Inhibition (RBL)", "setting": "[1]; Concentration 2.00 E -6 M", "value": 10.0, "unit": "%"}, {"measurement": "% Inhibition (RBL)", "setting": "[1]; Concentration 5.00 E -5 M", "value": 11.0, "unit": "%"}, {"measurement": "% Inhibition (RBL)", "setting": "[1]; Concentration 5.00 E -6 M", "value": 13.0, "unit": "%"}]}, {"molecule": "O=C(Nc1ccc(CCc2ccc(O)c(O)c2)cc1)C(=O)C1Oc2ccccc2C1=O", "note": "(stereo not drawn) [Example 126, 2-Benzofuranacetamide, N-[4-[2-(3,4-Dihydroxyphenyl)ethyl]phenyl]-2,3-dihydro-α,3-dioxo-]", "values": [{"measurement": "IC50", "setting": "[2]", "value": "3.2e-05", "unit": "M"}]}, {"molecule": "CCCCCCCCCCc1ccc(NC(=O)C(=O)c2sc3ccc(Cl)cc3c2O)cc1", "note": "[Example 135, Benzo[b]thiophene-2-acetamide, 5-chloro-N-(4-decylphenyl)-3-hydroxy-α-oxo]", "values": [{"measurement": "% Inhibition (RBL)", "setting": "[1]; Concentration 1.00 E -4 M", "value": 43.0, "unit": "%"}]}, {"molecule": "O=C(Nc1ccc(CCc2ccc(Cl)cc2)cc1)C(=O)c1sc2ccccc2c1O", "note": "[Example 137, Beno[b]thiophene-2-acetamide, N-[4-[2-(4-chlorophenyl)ethyl]phenyl]-3-hydroxy-α-oxo]", "values": [{"measurement": "% Inhibition (RBL)", "setting": "[1]; Concentration 1.00 E -4 M", "value": 12.0, "unit": "%"}]}, {"molecule": "COc1ccc(CCc2ccc(NC(=O)C(=O)c3sc4ccc(Cl)cc4c3O)cc2)cc1OC", "note": "[Example 139, Benzo[b]thiophene-2-acetamide, 5-chloro-N-[4-[2-(3,4-dimethoxyphenyl)ethyl]phenyl]-3-hydroxy-α-oxo]", "values": [{"measurement": "% Inhibition (RBL)", "setting": "[1]; Concentration 1.00 E -4 M", "value": 25.0, "unit": "%"}]}, {"molecule": "O=C(Nc1ccc(CCc2ccc(Cl)cc2)cc1)c1sc2ccccc2c1O", "note": "[Example 145, Benzo[b]thiophene-2-carboxamide, N-[4-[2-(4-chlorophenyl)ethyl]phenyl]-3-hydroxy]", "values": [{"measurement": "% Inhibition (RBL)", "setting": "[1]; Concentration 1.00 E -4 M", "value": 30.0, "unit": "%"}]}]}
